Results taken from article PMC6212790.
The list shows a part of the results. At the low end of the ranking the order means little.

Biological target: T1, GST-Rok (full length) (UniProt O34857)
T1 sequence: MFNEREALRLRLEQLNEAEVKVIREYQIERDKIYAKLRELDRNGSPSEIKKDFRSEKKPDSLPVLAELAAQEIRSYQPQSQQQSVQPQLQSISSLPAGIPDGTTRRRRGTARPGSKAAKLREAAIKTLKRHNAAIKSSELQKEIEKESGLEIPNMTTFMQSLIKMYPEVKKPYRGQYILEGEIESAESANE
Test: protein binding microarray;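 further: rank score from −0.5 (least bound) to 0.5 (best bound)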
Details: Rok is a gene silencer of Bacillus subtilis; high values mean tight binding; most listed sequences are background and not binding sites; double strand, one strand shown

Sequence	binding signal [E-score]
CAGCAGAA	-0.0962
CAAGTGGA	-0.167
CAATTAAC	0.0429
GTAGCGCA	0.0818
ATAAGTAC	0.272
AGGAACCT	-0.135
AGGGCCAT	-0.0842
ATTAATTG	0.204
AACGGACT	-0.127
GCGGACCC	-0.319
CAGTATAA	0.312
CACTGCCG	-0.341
AATAAGGG	-0.0581
AATCTGTG	-0.0281
AAAGTCTA	-0.144
GGACTGCA	-0.209
AGGAAAGG	-0.239
ATATGTGC	0.188
ATCTCCGG	0.00901
CGTTGCGC	-0.243
GTACAGTA	0.208
AGCTCCCC	-0.408
TTCAGAAA	-0.132
AAGGTAAG	-0.266
CATACACC	0.115

Sequence	binding signal [E-score]
GATGGGCA	-0.271
CTTAACTC	0.071
CACGTACA	0.192
GGCGACCC	-0.45
ATCGGAAA	0.0118
ACGCGCTC	-0.117
CGGGGACA	-0.319
CGTCCGTA	-0.0554
CCCCGGCA	-0.27
GCCAGCGA	-0.261
AGATGGAC	-0.239
ACGGAATC	0.193
ATCGAGAG	-0.0291
CACCAGTG	-0.124
ACGGCGGG	-0.259
ATTTGTAG	0.334
AATCACTC	-0.0767
ACCGGTCT	-0.0218
ACAAGTGT	0.195
ACAAGTGG	0.0565
CAATTTTA	0.249
CATGTGAC	0.0968
CAAACAAA	-0.208
AAAGTGCA	-0.00348
ACGCCAGC	-0.0236

Sequence	binding signal [E-score]
AGGCTGCA	-0.203
ACATTTGC	0.134
GCTTTGGA	-0.148
CACCCTAA	-0.155
GGCGTCAC	-0.293
ATGACGGG	-0.276
CCTAAGTA	0.0387
AGAATCGA	-0.121
CTCATTTC	-0.0699
CCGTCATA	-0.106
CGAATCCG	-0.07
CTCAGCTC	-0.332
CAACGATG	-0.0562
GAGCTTTA	-0.109
CAGCAGCG	-0.131
ATGAACCC	-0.139
CCCCCTAA	-0.309
TCTCGTAA	-0.0286
GTGGATCA	0.0489
ACTCAGAA	-0.025
GGCGCGTA	0.0145
GGACACTA	-0.0441
CATCAAGG	-0.296
AAAGCGAC	-0.0517
ATCCTGTG	0.0664

Sequence	binding signal [E-score]
ATGTTTTA	0.151
ATGCGCCG	-0.177
CAAGCACC	-0.156
CATAATAG	0.243
AGTTGACC	-0.12
AGGATGAA	-0.219
AATGGGTA	0.289
GGACTAGA	0.0814
AATTGAAC	0.0822
CTAGACTC	-0.215
CCATGACC	-0.265
CTTGAAAG	-0.0808
GCTTGATA	0.141
ATTCTTCC	0.0419
AGCCATAA	0.00412
AGCTCCCG	-0.283
CAAACATA	0.254
AGTCGTCG	0.00634
AAAATATT	0.358
TCGTTTCA	-0.125
CATGGTGC	-0.232
AATAACGG	0.121
TCTTATAA	0.176
CGTCTCCC	-0.209
AATGCGGT	0.113

Sequence	binding signal [E-score]
ATACAATG	0.254
CTTAGGTA	0.0868
ACCCTACG	-0.152
AATCGTAG	0.219
GGTGTGAA	-0.095
CAGCGCGA	0.137
CGAGGCAA	-0.0186
CACCTTCC	-0.264
CTAACACC	0.0755
AAGCTAAG	-0.0658
ACCAAAAC	0.0599
CTGACCCA	-0.303
ATCTGAGG	-0.202
GCTTCATA	-0.0768
ACTTTTTA	0.0443
AGGTCTGC	-0.0687
GAACTGTC	-0.0462
AGATCTTG	0.21
ATAACGAA	0.23
AGCATTTA	0.0587
CAGCAAAA	-0.111
GAAATCTA	0.345
GACTGAGA	-0.0931
GCATAGAA	0.00974
GTGTCGGA	-0.00129

Sequence	binding signal [E-score]
ACTCTGCC	-0.162
ATGTGAAG	0.144
AACCTCCA	-0.0934
AATGTTAT	0.273
CGTGGGCA	-0.264
ACTGCTCT	-0.277
ACCTGTCT	-0.0271
GAGGACGC	-0.313
ACCTAGCA	0.0856
CCCGGCTC	-0.309
CGCAGGTA	0.0849
AGAGGAAC	-0.179
AACGCGCC	-0.252
CCAGGACA	-0.0859
GTGTGTCA	0.0189
CTCGCTGA	-0.29
GACTAGGC	-0.216
AGTCTTCG	0.0988
AGCGGGCC	-0.362
GCAACTGC	-0.178
ATGTCTCC	-0.0386
ACTGGCCG	0.00991
ACGAAAGT	0.196
AGACGGGA	-0.288
AGATGTGA	-0.0336

Sequence	binding signal [E-score]
GAGAGAGC	-0.22
GACGCATA	0.107
ACTTCCCA	-0.0267
GCTCACAC	-0.00918
TCGTGGCA	-0.249
GCCATAGA	0.067
CCATACAG	-0.118
CCGGCTCC	-0.356
GTCGACAC	-0.204
CTCCATCC	-0.196
CCTCTAAA	-0.049
AGACCGGG	-0.216
CGATCCAC	-0.0874
GGGATTAA	0.0693
CACGTTCA	-0.0302
ACGTGTCC	0.125
CGCATGAG	0.00661
AGCCGGAT	-0.184
ACGCCAAT	-0.0858
GAACGAGC	-0.306
ATGGTTAA	0.222
GCCTTATA	-0.0516
